Out of some 43,000 compounds screened, about 200 (0.47%) were called active. About 12% were inconclusive and are not listed. Calls follow the shape of the dose curve; as a rule, active = well fitted cell-killing curve with a large enough effect; inconclusive = small, poorly fitted or top-dose-only effect, or effect the other way; inactive = flat fitted curve, though single readings scatter. The list shows a part of the results.
Test: Cell viability qHTS assay in S16 Pmp22-F2sN cells; also: nearly all actives have a fitted effect of over 65% in size
Conditions: S16 Pmp22-F2sN Schwann cells (luciferase reporters placed in the Pmp22 gene) viability, CellTiter-Glo, 24 h; series mostly up to 57.5 µM; activity change, negative = cytotoxicity: at the top concentration
Outline: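 Rat S16 Schwann reporter line, 24 h treatment with library compounds delivered at 23 nL per well. Cell viability by CellTiter-Glo luminescence.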
In the case of `CCOC(=O)Cn1c(=O)n(CC2CCCO2)c2nc(-c3ccccc3Cl)nc(C(N)=O)c21` (stereo not drawn), the “activity change, negative = cytotoxicity” value is reported as inactive: 7.48%.
In the case of `Cc1cc(C)cc(NC(=O)c2sc3nc[nH]c(=O)c3c2C)c1`, the “activity change, negative = cytotoxicity” value is reported as inactive: -5.95%.
With `Cc1ccc(CNC(=O)c2c(-c3ccc(Br)cc3)noc2C)o1` the “activity change, negative = cytotoxicity” value was inactive: -10.5%.
For `CCOc1ccccc1NC(=O)C1=C(C)Nc2ncnn2C1c1sccc1C` (stereo not drawn), the “activity change, negative = cytotoxicity” value was inactive: 1.55%.
For `O=C(CCCn1c(=O)c2cccn2c2cccnc21)Nc1ccccc1C(F)(F)F`, the “activity change, negative = cytotoxicity” value was inactive: 4.81%.
With `CCOC(=O)c1ccc(CN(Cc2ccc(OC)cc2)S(=O)(=O)c2cccc(C(F)(F)F)c2)cc1` the “activity change, negative = cytotoxicity” value was inactive: 6.77%.
In the case of `COc1ccccc1C(=O)Nc1c(C(=O)c2ccccc2)oc2ccccc12`, the “activity change, negative = cytotoxicity” value is reported as inactive: 17.2%.
With `CCOc1ccc(N(CC)C(=O)c2noc3c2COc2ccc(C)cc2-3)cc1` the “activity change, negative = cytotoxicity” value was inactive: 24.6%.
For `O=c1c(N2CCc3ccccc3C2)csc2ccc(F)cc12`, the “activity change, negative = cytotoxicity” value was inactive: 2.15%.
In the case of `CC1=C(C(=O)Nc2ccccc2C)C(c2cccs2)n2nc(SCc3cc(C)ccc3C)nc2N1` (stereo not drawn), the “activity change, negative = cytotoxicity” value is reported as inactive: -1.11%.
In the case of `Cc1ccc2oc(C(=O)Nc3nc(-c4ccc(F)cc4)ns3)c(C)c2c1`, the “activity change, negative = cytotoxicity” value is reported as inactive: -1.77%.
With `CCc1ccc(C(=O)c2cn(CC(=O)Nc3ccc4c(c3)OCCO4)c3ccc(CC)cc3c2=O)cc1` the “activity change, negative = cytotoxicity” value was inactive: -4.38%.
For `Cc1ccccc1OCC(=O)Nc1ccc(C(=O)OCc2cc(=O)n3c(C)csc3n2)cc1`, the “activity change, negative = cytotoxicity” value was inactive: -0.814%.
With `CCCN(CCC)C(=O)c1c[nH]c2ccc(S(=O)(=O)N(C)c3ccc(OCC)cc3)cc2c1=O` the “activity change, negative = cytotoxicity” value was inactive: -12.3%.
In the case of `COc1ccc(CCNC(=O)c2ccc3c(Cl)c4c(nc3c2)CCCC4)cc1OC`, the “activity change, negative = cytotoxicity” value is reported as inactive: 17.7%.
For `COCCCNC(=O)C1CCCN(c2ncnc3onc(C)c23)C1` (stereo not drawn), the “activity change, negative = cytotoxicity” value was inactive: -1.54%.
For `Cc1cccc(N2CCN(C(=O)c3cc4c(=O)[nH]c5ccc(C)cc5c4s3)CC2C)c1` (stereo not drawn), the “activity change, negative = cytotoxicity” value was inactive: 9.86%.
For `COc1ccc(Cn2c(CNC(=O)Cc3cccc([N+](=O)[O-])c3)nc3cccnc32)cc1`, the “activity change, negative = cytotoxicity” value was inactive: 1.07%.
With `CC(=O)N1CCN(c2nc3c(F)cc(F)cc3s2)CC1` the “activity change, negative = cytotoxicity” value was inactive: 2.9%.
With `COc1cccc(NC(=O)CSC2=Nc3ccccc3C3=NC(CC(=O)NCc4cccs4)C(=O)N23)c1` (stereo not drawn) the “activity change, negative = cytotoxicity” value was inactive: 11.7%.
In the case of `COc1ccc(C2c3c(oc4cc(C)cc(C)c4c3=O)C(=O)N2Cc2ccco2)cc1OC` (stereo not drawn), the “activity change, negative = cytotoxicity” value is reported as inactive: 10.7%.
In the case of `COc1ccc(S(=O)(=O)NC(C)C)cc1-n1cnnn1`, the “activity change, negative = cytotoxicity” value is reported as inactive: 1.08%.
For `O=C(Nc1ccc(OC(F)(F)F)cc1)C1CCCN(S(=O)(=O)c2ccc(Br)s2)C1` (stereo not drawn), the “activity change, negative = cytotoxicity” value was inactive: -3.83%.
For `O=C(Cc1csc2ccccc12)NCc1ccc(F)cc1`, the “activity change, negative = cytotoxicity” value was inactive: 4.41%.
With `COc1ccc(C(C(=O)Nc2ccc(C(C)C)cc2)N(C)C(=O)Cc2cccs2)cc1` (stereo not drawn) the “activity change, negative = cytotoxicity” value was inactive: -12.6%.
With `Cc1ccc(NC(=O)Cn2c(SCc3cccc(F)c3)nc3ccncc32)c(C)c1` the “activity change, negative = cytotoxicity” value was inactive: -7.4%.
In the case of `CC(C)(C)c1ccc(C(=O)Nc2nc3nc(-c4ccccc4)cc(=O)n3[nH]2)cc1`, the “activity change, negative = cytotoxicity” value is reported as inactive: 4.74%.
In the case of `C#CC(C)(CC)NC(=O)Cn1nnc(-c2ccc(OCc3ccccc3Cl)cc2)n1` (stereo not drawn), the “activity change, negative = cytotoxicity” value is reported as inactive: -3.64%.
With `COc1ccc(Br)cc1CNC(=O)CN1C(=O)CCCc2ccccc21` the “activity change, negative = cytotoxicity” value was inactive: 6.8%.
In the case of `COc1cccc(NC(c2nnc(-c3ccccc3)o2)c2ccc(F)cc2Cl)c1` (stereo not drawn), the “activity change, negative = cytotoxicity” value is reported as inactive: 4.96%.
For `Cc1ccccc1Cn1c(=O)n(Cc2ccco2)c(=O)c2oc3ccccc3c21`, the “activity change, negative = cytotoxicity” value was inactive: 4.23%.
In the case of `O=C(c1ccc2c(c1)CCN2S(=O)(=O)c1ccc(Cl)cc1)N1CCN(c2ccccc2F)CC1`, the “activity change, negative = cytotoxicity” value is reported as inactive: -4.56%.
For `CC(C)N(Cc1ccccc1)C(=O)c1cc2ccc3cccnc3c2[nH]1`, the “activity change, negative = cytotoxicity” value was inactive: -26%.
For `CCC(CC)C(=O)Nc1ccc(OCc2cc(=O)n3ccc(C)cc3n2)cc1`, the “activity change, negative = cytotoxicity” value was inactive: 7.45%.
In the case of `CCOC(=O)C1CCN(C(=O)c2nn(-c3ccc(C)cc3)c(=O)c3c2c2ccccc2n3C)CC1`, the “activity change, negative = cytotoxicity” value is reported as inactive: -3.84%.
For `CCOc1ccccc1N1CC(c2nc3ccccc3n2CCCOc2ccccc2)CC1=O` (stereo not drawn), the “activity change, negative = cytotoxicity” value was inactive: 6.09%.
With `Cc1cc(OC(C)C(=O)N2CCN(CCc3ccccn3)CC2)ccc1Cl` (stereo not drawn) the “activity change, negative = cytotoxicity” value was inactive: 13.8%.
With `Cc1nc2c(c(SCC(=O)Nc3ccccc3C(F)(F)F)n1)CCC2` the “activity change, negative = cytotoxicity” value was inactive: 2.1%.
For `Cc1c(F)cccc1NS(=O)(=O)c1cccs1`, the “activity change, negative = cytotoxicity” value was inactive: -5.69%.
With `Cc1c(C(=O)Nc2cccc(F)c2)sc2nc(-c3cc4ccccc4oc3=O)[nH]c(=O)c12` the “activity change, negative = cytotoxicity” value was inactive: 4.43%.
In the case of `CN(C1CCCCC1)S(=O)(=O)c1ccc(F)c(C(=O)Nc2ccc(C(F)(F)F)cc2)c1`, the “activity change, negative = cytotoxicity” value is reported as inactive: -0.324%.
With `COc1ccc(NC(=O)c2c(NCc3cccs3)sc3c2CCCCC3)cc1` the “activity change, negative = cytotoxicity” value was inactive: 6.65%.
In the case of `Cc1ccc(-n2nc(C)c3c(C)cc(=O)n(CC(=O)Nc4ccc(C(C)C)cc4)c32)cc1`, the “activity change, negative = cytotoxicity” value is reported as inactive: 20.6%.
In the case of `CCc1ccc(NC(=O)C(=O)NCCc2sc(-c3ccc(OC)c(OC)c3)nc2C)cc1`, the “activity change, negative = cytotoxicity” value is reported as inactive: 10.1%.
In the case of `CC1CCCCN1C(=O)c1ccc2c(c1)N(Cc1ccc(Cl)cc1)C(=O)c1ccccc1S2=O` (stereo not drawn), the “activity change, negative = cytotoxicity” value is reported as inactive: -17.8%.
For `COc1cc(OC)cc(C(=O)NCCc2csc(-c3cccc(C)c3)n2)c1`, the “activity change, negative = cytotoxicity” value was inactive: -7.1%.
For `COc1ccccc1Cn1ccn(CC(=O)Nc2c(C)cc(C)cc2C)c(=O)c1=O`, the “activity change, negative = cytotoxicity” value was inactive: -3.11%.
In the case of `Cc1nnc(N2CCN(c3ccc(Cl)cc3)CC2)c2c1nnn2Cc1ccc(F)cc1`, the “activity change, negative = cytotoxicity” value is reported as inactive: -0.646%.
For `CC(C)C(=O)NC1CC(=O)N(c2ccc3c(c2)OCCO3)C1` (stereo not drawn), the “activity change, negative = cytotoxicity” value was inactive: -7.06%.
With `COc1cccc(C(c2sc3nc(-c4ccco4)nn3c2O)N2CCCC2)c1` (stereo not drawn) the “activity change, negative = cytotoxicity” value was inactive: 10.4%.
With `CCc1cccc(NC(=O)c2cc(-c3ccccc3)n[nH]2)c1` the “activity change, negative = cytotoxicity” value was inactive: 0.513%.
For `CCOC(=O)c1sc2ncn(CC(=O)Nc3cccc(C)c3)c(=O)c2c1C`, the “activity change, negative = cytotoxicity” value was inactive: 16.5%.
In the case of `CCOC(=O)c1[nH]c2ccccc2c1NC(=O)c1c(F)cccc1F`, the “activity change, negative = cytotoxicity” value is reported as inactive: 12.8%.
In the case of `O=C(NCc1ccccc1Cl)c1ccc2c(c1)N(Cc1ccccc1)C(=O)c1ccccc1S2`, the “activity change, negative = cytotoxicity” value is reported as inactive: 10.5%.
With `Fc1ccccc1N1CCN(c2nnc(C(F)(F)F)c3nnn(Cc4ccccc4)c23)CC1` the “activity change, negative = cytotoxicity” value was inactive: -0.606%.
With `O=C(Cn1c(SCCOc2ccccc2Cl)nc2ccccc21)N1CCOCC1` the “activity change, negative = cytotoxicity” value was inactive: -13.6%.
In the case of `COc1ccc2c(CNCc3ccco3)c(C(=O)O)n(Cc3ccc(F)cc3Cl)c2c1`, the “activity change, negative = cytotoxicity” value is reported as inactive: 14.6%.
With `CN(C)S(=O)(=O)N(CC(=O)Nc1ccc(Br)cc1F)c1ccccc1` the “activity change, negative = cytotoxicity” value was inactive: 1.23%.
With `COc1ccc(CCNc2ncnc3c2nnn3C)cc1OC` the “activity change, negative = cytotoxicity” value was inactive: -12.1%.
With `CCc1ccc(NC(=O)CSc2nc(-c3ccccc3)no2)cc1` the “activity change, negative = cytotoxicity” value was inactive: -1.03%.
With `Cc1ccc(-n2c3c(c(=O)[nH]c2=O)C(NS(=O)(=O)c2ccc(Cl)cc2)(C(F)(F)F)C(=O)N3)cc1` (stereo not drawn) the “activity change, negative = cytotoxicity” value was inactive: -1.06%.
In the case of `NC(=O)C1CCN(c2ncnc3c2cnn3-c2ccccc2)CC1`, the “activity change, negative = cytotoxicity” value is reported as inactive: 0.0855%.
With `O=c1c2oc3ccccc3c2n(Cc2ccc(Cl)cc2)c(=O)n1Cc1ccc2c(c1)OCO2` the “activity change, negative = cytotoxicity” value was inactive: 2.49%.

Source: PubChem BioAssay AID1508642 (National Center for Advancing Translational Sciences (NCATS), 2021)
% is scaled to controls: 0 for no effect and ±100 for the full control effect.
